# Results published in PubChem BioAssay AID463173 (ICCB-Longwood Screening Facility, Harvard Medical School, 2010).
# Screen size: about 52,000 compounds; about 1,700 (3.3%) were called active. Rule as the data show it: active = survival mostly below about 52% (no sharp cut-off); inactive = mostly above about 56%. Some of the results follow.
# System: Wild type
# Assay: S. aureus survival, RN4220 and DeltatarO strains – OD600, teichoic acid synthesis inhibitors, primary screen (AID 463173)
# Conditions: S. aureus RN4220 wild type/DeltatarO growth, OD600, 18 h, stronger effect = lower value, screened at 18.75 µg/mL (by protocol)
row,SMILES,survival
1,Cc1cccc(N2CCN(C(=O)CCS(=O)(=O)c3ccc4c(c3)CC(=O)N4C)CC2C)c1 (centres undefined),active: -4%
2,Cc1ccccc1S(=O)Cc1ccc(C(=O)NCc2ccccc2Cl)o1 (centres undefined),inactive: 71%
3,O=C(Cn1cc(C(=O)c2ccco2)c2ccccc21)Nc1ccccc1C(F)(F)F,inactive: 98%
4,COc1ccc(-c2csc3ncnc(Nc4ccccc4)c23)cc1,inactive: 94%
5,Cc1ccc(CSC2=NC(C)(C)Nc3ccccc32)c(C)c1,inactive: 120%
6,Fc1cccc(CN2CCc3nc(Nc4ccc5c(c4)OCCO5)ncc3C2)c1F,inactive: 81%
7,O=C(NCCc1cccs1)c1ccc(Cn2c(SCc3cccc(F)c3)nc3cccnc32)cc1,inactive: 91%
8,COc1ccc(NC(=O)Cn2cc(C(=O)c3ccc(C)c(C)c3)c(=O)c3cc(OC)ccc32)cc1,inactive: 78%
9,CCOc1ccccc1NC(=O)Cn1c(=O)oc2ccccc21,inactive: 75%
10,COc1ccc(-c2noc(N3CCC(C(=O)N4CCN(c5cccc(OC)c5)CC4)CC3)n2)cc1,inactive: 69%
11,CCOC(=O)c1c(-c2ccccc2)oc2ccc(OCc3ccccc3Br)cc12,inactive: 50%
12,CCOc1ccc2c(c1)c(=O)c(C(=O)c1ccc(CC)cc1)cn2CC(=O)Nc1ccc2c(c1)OCCO2,inactive: 78%
13,COc1cc(C2C=C(C(=O)O)Nc3ncnn32)ccc1O (centres undefined),inactive: 88%
14,COc1ccc(Cl)cc1NC(=O)Cn1c(=O)n2nc(-c3ccccc3)nc2c2ccccc21,inactive: 74%
15,O=C(CSCCO)N1CCc2ccccc21,inactive: 118%
16,COc1cccc(NC(=O)Cn2c(=O)n(CCC(=O)NCc3ccccc3OC)c(=O)c3ccccc32)c1,inactive: 82%
17,COc1ccc(C)c2sc(N(Cc3cccnc3)C(=O)c3cccs3)nc12,inactive: 63%
18,Cc1ccc(NC(=O)Cn2cc3c(n2)CCCC3)cc1Cl,inactive: 97%
19,CCN1CCc2c(sc(-n3cccc3)c2C(C)NC(=O)Nc2ccc(C(=O)OC)cc2)C1 (centres undefined),inactive: 87%
20,CCCCCCN1C(=O)c2ccc(Br)cc2C1=O,inactive: 108%
21,COc1ccc(-c2csc(-c3c(N)c(C(=O)c4ccc(OC)c(OC)c4)n4ccccc34)n2)cc1,inactive: 100%
22,O=C(Nc1cccc(F)c1)c1cnc2sc(N3CCCC3)nn2c1=O,inactive: 74%
23,COc1ccc(CNS(=O)(=O)c2ccc(-c3cc(C(F)(F)F)on3)s2)cc1OC,inactive: 133%

row,SMILES,survival
1,COc1ccc(CNC(=O)c2nn(C)c3c2CSc2ccccc2-3)cc1,inactive: 88%
2,Cc1ccc(NC(=O)Cn2c(=O)n(Cc3ccccc3)c(=O)c3c(C)c(C(=O)N(C)C)sc32)c(C)c1,inactive: 77%
3,COc1ccc(NC(=O)c2ccco2)cc1NC(=O)c1ccccc1[N+](=O)[O-],inactive: 64%
4,CCOC(=O)c1ccc(N2C(=O)c3n[nH]c(-c4ccco4)c3C2c2ccccc2OC)cc1 (centres undefined),inactive: 46%
5,COc1ccc(N(C)S(=O)(=O)c2ccc3c(c2)CCN3C(=O)CCC(=O)O)cc1,inactive: 61%
6,CCc1cccc(C)c1Nc1nn2c(=O)c3ccccc3nc2s1,inactive: 71%
7,Cc1ccccc1C(=O)NC1CCN(Cc2nnnn2Cc2ccccc2)CC1,inactive: 96%
8,CCN(CC)S(=O)(=O)c1ccc(-n2cnnn2)c(C)c1,inactive: 100%
9,Cc1ccc(CNC(=O)c2ccc3c(c2)c(C)c(C)n3Cc2ccc(Cl)cc2)o1,inactive: 84%
10,CC(C)Nc1nc(Cl)nc(NCCO)n1,inactive: 109%
11,COc1cc(-c2cc(OC)c3c(C)oc(C)c3c(=O)c2)ccc1OC(=O)c1cccc(C)c1,inactive: 78%
12,Cc1nn(S(=O)(=O)c2ccc(F)cc2)c(C)c1S(=O)(=O)N1CCCCCC1,inactive: 57%
13,Cc1ccc(-c2noc(-c3ccc(N4CCCC4)c([N+](=O)[O-])c3)n2)cc1,inactive: 113%
14,Cc1ccc(C(=O)Nc2c(C(=O)Nc3ccc(C)c(C)c3)sc3nc(C)cc(C)c23)cc1,inactive: 76%
15,CCCc1cc(=O)[nH]c(SCc2nc(-c3ccc(OCC)cc3)no2)n1,inactive: 65%
16,CCc1cccc(C)c1NC(=O)CSc1nc2ccncc2[nH]1,inactive: 152%
17,COc1ccc(NC(=O)C2CCN(c3cc(C)nc4c(-c5ccc(Cl)cc5)c(C)nn34)CC2)cc1,inactive: 90%
18,Cc1c(-c2ccccc2)c(=O)oc2c(CN3CCOCC3)c(O)ccc12,inactive: 66%
19,CC1(C)CC(NS(=O)(=O)c2ccccc2)CC(C)(C)N1,inactive: 97%
20,Cc1ccc(C2C=C(c3ccccc3)Nc3nc(NS(C)(=O)=O)nn32)cc1 (centres undefined),inactive: 68%
21,Cc1cccc(NC(=O)c2cn(-c3ccccc3)nc2-c2ccccc2)c1C,inactive: 102%
22,Cc1ccccc1CN1CCCN(CC(=O)Nc2ccc(F)cc2)S1(=O)=O,inactive: 92%
23,CCOC(=O)C1CCN(Cc2cn3c(-c4ccc(OC)cc4)nnc3s2)CC1,inactive: 65%

row,SMILES,survival
1,COc1cccc(NS(=O)(=O)c2ccc3[nH]cc(C(=O)NC(C)c4ccccc4)c(=O)c3c2)c1 (centres undefined),inactive: 61%
2,Cc1ccc(OCCCCn2c(-c3ccc(Cl)cc3)nc3ccccc3c2=O)cc1,inactive: 67%
3,CC(C)c1ccc(NC(=O)Cn2nnc(C(=O)NCc3ccc4c(c3)OCO4)c2N)cc1,inactive: 78%
4,CCOC(=O)c1c(C)oc2nc(C)nc(NCCc3ccc(Cl)cc3)c12,inactive: 78%
5,Cc1ccc(NC(=O)Cn2c(=O)n(Cc3ccc4c(c3)OCO4)c(=O)c3oc4ccccc4c32)cc1C,inactive: 87%
6,Cn1c(=O)oc2cc(S(=O)(=O)NC(Cc3ccccc3)C(=O)Nc3ccc(F)c(Cl)c3)ccc21 (centres undefined),inactive: 93%
7,Cc1ccc(/C=C/C(=O)Nc2ccc3nc(N4CCC(C)CC4)cc(C)c3c2)cc1,inactive: 139%
8,CCOc1ccc(C(=O)Nc2ccc3nc(N(CC)CC)cc(C)c3c2)cc1,inactive: 62%
9,Cc1cc(N2CCC(C(=O)Nc3ccc(F)cc3F)CC2)n2nc(C)c(-c3ccc(Cl)cc3)c2n1,inactive: 87%
10,CCOc1cccc2sc(NC(=O)c3ccc(S(=O)(=O)N4CCCCC4C)cc3)nc12 (centres undefined),active: 10%
11,CCN(c1cccc(C)c1)S(=O)(=O)c1cc2c(cc1C)n(C)c(=O)c(=O)n2C,inactive: 77%
12,COc1ccc(OCCSc2nc(C)cc(=O)[nH]2)cc1,inactive: 107%
13,Clc1ccccc1Cn1c(-c2cccs2)nc2ccccc21,active: -3%
14,CCOc1ccc(NC(=O)c2sc(-n3nc(C)c(Cc4ccc(Cl)cc4)c3C)nc2C)cc1,inactive: 86%
15,Cc1nnc(NC(=O)c2nc(SC(C)C)ncc2Cl)s1,inactive: 82%
16,O=C(c1cc(-c2ccc(Cl)cc2)n[nH]1)N1CCN(S(=O)(=O)c2ccc(Br)s2)CC1,inactive: 75%
17,CCOC(=O)c1c(C)[nH]c(C)c1S(=O)(=O)N1CCN(c2cc(Cl)ccc2C)CC1,inactive: 120%
18,COc1ccc(-c2cc(C(F)(F)F)nc(SCCC(=O)N3CCN(C)CC3)n2)cc1,inactive: 108%
19,CCOC(=O)c1c(-c2ccc(C)cc2)csc1NC(=O)c1cc(-c2ccc(OC)cc2)on1,inactive: 80%
20,CCc1cccc(NC(=O)c2ccc3c(c2)N(Cc2cccc(Cl)c2)C(=O)c2ccccc2S3=O)c1 (centres undefined),inactive: 70%
21,Cc1cccc(N(C)C(=O)CCS(=O)(=O)c2ccc3c(c2)n(C)c(=O)c(=O)n3C)c1,inactive: 87%
22,Cc1cc(Nc2cccc(C(=O)O)c2)n2nc(C)nc2n1,inactive: 125%
23,COc1ccc(CCNS(=O)(=O)c2c(C)nc3sc(C)cn3c2=O)cc1OC,inactive: 86%

row,SMILES,survival
1,CCCCOc1ccc(NC(=O)CS(=O)CC(=O)Nc2ccc(OC)cc2)cc1 (centres undefined),inactive: 105%
2,CCCn1c2ccccc2c2cnn(CC(=O)NCCN(CC)CC)c(=O)c21,inactive: 53%
3,COc1ccc(-c2nc3ccccc3o2)cc1NC(=O)c1cccnc1,inactive: 57%
4,COc1ccc(CCNC(=O)c2ccc3c(c2)N=C(C)c2ccccc2S3)cc1OC,inactive: 74%
5,Cc1cccc(NC(=O)CN(C)S(=O)(=O)c2ccc3c(c2)c(=O)n(C)c(=O)n3C)c1C,inactive: 123%
6,C=Cn1cccc1C(=O)O,inactive: 102%
7,CCOc1c(Cl)cc(CNc2ccc3[nH]c(=O)[nH]c3c2)cc1OC,inactive: 88%
8,CCOC(=O)C1Cc2c([nH]c3ccccc23)CN1 (centres undefined),inactive: 113%
9,CCN(CC)CCCNC(=O)c1ccc2c(c1)sc1nc(-c3ccc(C)cc3)cn12,active: 8%
10,COc1ccc(NC(=O)NC(C)c2c(-n3cccc3)sc(C)c2C)cc1OC (centres undefined),inactive: 76%
11,CCCCOc1ccc(C(=O)Nc2cc(-c3cn4cccnc4n3)ccc2OC)cc1,inactive: 66%
12,COc1ccc(Cl)cc1C(=O)CSc1nnnn1C1CCCCC1,inactive: 109%
13,CCOC(=O)C1CCN(C(=O)c2cnn(-c3ccc(F)cc3)c2-n2cccc2)CC1,inactive: 89%
14,CCOC(=O)c1[nH]c2c(c1Cc1ccccc1)C(=O)CC(c1ccc(C(C)(C)C)cc1)C2 (centres undefined),inactive: 83%
15,CCCCN1C2CCCC1CC(NC(=O)C1CCCCC1)C2 (centres undefined),inactive: 94%
16,CCN(CC)CCCNC(=O)c1sc2nc3n(c(=O)c2c1C)CCCCC3,inactive: 110%
17,CCc1[nH]nc2c1C1(C(=O)Nc3ccc(Cl)cc31)C(C#N)=C(N)O2 (centres undefined),inactive: 110%
18,COc1ccc(-c2noc(CSc3nnc(Cc4ccccc4)n3-c3ccc(F)cc3)n2)cc1,inactive: 70%
19,CN(CC(=O)Nc1ccc(F)cc1F)S(=O)(=O)c1cccc2nsnc12,inactive: 78%
20,CCN(CC)S(=O)(=O)c1cc(-c2ccc(=O)n(C(C)C(=O)Nc3cccc(C#N)c3)n2)ccc1C (centres undefined),inactive: 62%
